# About 520 (0.14%) of roughly 360,000 compounds were called active. The shares of active, inactive and inconclusive entries below differ from those in the screen. The call rests on the fitted dose curve; in most records, active means well fitted inhibition curve with a large enough effect; inconclusive means small, poorly fitted or top-dose-only effect; inactive means no such curve, though single readings can be large or run the other way. Potencies of inconclusive entries are left out as doubtful fits.
# Target: Rap guanine nucleotide exchange factor 3 (Homo sapiens) (UniProt O95398)
# Sequence of UniProt O95398 (O95398 whole entry, looked up): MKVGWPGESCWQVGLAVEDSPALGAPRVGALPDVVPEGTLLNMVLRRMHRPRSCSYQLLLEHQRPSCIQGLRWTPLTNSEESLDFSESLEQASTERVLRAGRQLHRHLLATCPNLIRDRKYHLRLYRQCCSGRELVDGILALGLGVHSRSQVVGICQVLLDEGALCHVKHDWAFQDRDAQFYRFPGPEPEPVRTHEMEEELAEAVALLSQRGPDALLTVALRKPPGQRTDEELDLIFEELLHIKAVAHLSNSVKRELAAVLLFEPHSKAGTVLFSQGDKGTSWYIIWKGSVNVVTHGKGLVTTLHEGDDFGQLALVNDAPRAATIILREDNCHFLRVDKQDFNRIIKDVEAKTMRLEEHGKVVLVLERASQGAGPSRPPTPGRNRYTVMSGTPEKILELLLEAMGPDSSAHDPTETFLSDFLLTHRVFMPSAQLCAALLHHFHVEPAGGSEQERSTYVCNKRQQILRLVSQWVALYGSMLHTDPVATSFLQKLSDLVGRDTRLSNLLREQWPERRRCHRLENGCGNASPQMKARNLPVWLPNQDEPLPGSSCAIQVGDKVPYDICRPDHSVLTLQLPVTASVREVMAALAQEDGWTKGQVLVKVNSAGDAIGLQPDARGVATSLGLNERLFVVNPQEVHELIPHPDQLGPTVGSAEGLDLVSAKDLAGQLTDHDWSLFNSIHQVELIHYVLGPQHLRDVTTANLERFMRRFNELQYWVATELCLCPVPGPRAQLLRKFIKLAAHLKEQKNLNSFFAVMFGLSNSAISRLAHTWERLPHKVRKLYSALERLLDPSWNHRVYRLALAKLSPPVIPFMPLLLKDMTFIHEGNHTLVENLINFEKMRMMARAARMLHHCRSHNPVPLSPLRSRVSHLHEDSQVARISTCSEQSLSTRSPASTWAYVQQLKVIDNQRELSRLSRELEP
# Assay: qHTS for Antagonist of cAMP-regulated guanine nucleotide exchange factor 3 (EPAC1): primary screen; further: nearly all actives have a fitted effect of over 50% in size;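 on activity change, negative = inhibition: plate controls were vehicle for no effect and positive control for full effect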
# Details: EPAC1 GEF assay, Rap1b-BODIPY-GDP exchange fluorescence; activity change, negative = inhibition: at 115 µM (top of the series)
# Potency means the concentration at half of the fitted maximal effect; tags describe the fitted curve by direction and shape.
Structure (SMILES),"activity change, negative = inhibition",Potency
O=C(c1ccc(F)cc1)c1cnc(Nc2ccccc2)s1,inactive: 8.1%,–
Cc1ccc(NC(=O)OCc2cn(-c3ccc(Cl)cc3)nn2)cc1,–,"inconclusive [inhibitor, single point]"
CC(O)(Cc1cccnc1)c1cccs1 (centres undefined),–,"inconclusive [inhibitor, partial curve]"
O=c1[nH]c2cc3ccccc3cc2nc1-c1nnnn1C1CCCC1,inactive: 3.32%,–
O=C(O)c1cccc(-n2cccc2/C=C2/NC(=O)N(c3ccc(Cl)cc3)C2=O)c1,–,"inconclusive [inhibitor, partial curve]"
Cc1cccc(C)c1Cn1c(C)c(C(=O)NCCC#N)sc1=O,–,"inconclusive [inhibitor, single point]"
O=c1c(Cc2ccccc2)c(O)ccn1Cc1ccc2c(c1)OCO2,–,"inconclusive [inhibitor, single point]"
CCn1c(-c2nn(-c3ccccc3)ccc2=O)n[nH]c1=S,inactive: -1.16%,–
COc1ccccc1-n1c(SCC(N)=O)nc2sc3c(c2c1=O)CCC3,–,"inconclusive [inhibitor, single point]"
Cc1ccc(Nc2nc(-c3sc(N)nc3C)cs2)cc1,–,"inconclusive [inhibitor, single point]"
CCOc1cc(/C=C2\CN(C)C/C(=C\c3ccc(O)c(OCC)c3)C2=O)ccc1O,–,"inconclusive [inhibitor, partial curve]"
O=C(c1cc(COc2ccc(F)cc2F)on1)N1CC[C@@H]2CCCC[C@H]2C1,–,"inconclusive [inhibitor, partial curve]"
C=CCN1C(=O)/C(=C2/Sc3ccccc3N2CC)SC1=S,inactive: 7.93%,–
CCCCCCCCCCCCCCCC[N+](C)(C)CC,–,"inconclusive [inhibitor, partial curve]"
COc1cccc(C=C2Cc3ccccc3C2=O)c1,inactive: -7.34%,–
O=c1c(Cl)c(Cl)cnn1Cc1nnc(-c2ccccc2Br)o1,–,"inconclusive [inhibitor, partial curve]"
CCCCn1c(SCC(=O)c2ccc(OC)cc2OC)nc2cc(S(N)(=O)=O)ccc21,–,"inconclusive [inhibitor, full curve, poor fit]"
S=c1[nH]nc(COc2ccc3ccccc3c2)o1,inactive: 8.82%,–
NC(=O)c1sc(=S)n2c1[nH]c(=O)c1sccc12,–,"inconclusive [inhibitor, partial curve, poor fit]"
O=C(/C=C/c1ccco1)N1CCCC(c2ccccc2)C1 (centres undefined),–,"inconclusive [inhibitor, single point]"
CC(=O)C1=CCC(c2ccccc2)N(S(=O)(=O)c2ccc(C)cc2)C1 (centres undefined),–,"inconclusive [inhibitor, partial curve]"
Cc1ccc(-n2cccc2/C=C2/C(=N)N3C(=NC2=O)SN=C3S(C)(=O)=O)cc1,–,"inconclusive [inhibitor, partial curve]"
Cc1oc(-c2ccc(Cl)cc2)nc1CN1CCC(C(=O)NCCCN2CCOCC2)CC1,inactive: 12.8%,–

Structure (SMILES),"activity change, negative = inhibition",Potency
O=C(O)c1cccc(-n2cccc2/C=C2\SC(=O)N(Cc3ccccc3F)C2=O)c1,inactive: 2.51%,–
O=C(CN1C(=O)/C(=C\c2ccc(C(F)(F)F)cc2)Sc2ccccc21)NCc1ccco1,–,"inconclusive [inhibitor, full curve, poor fit]"
Cc1c(C(=O)NCc2cccc([N+](=O)[O-])c2)sc(=O)n1Cc1ccc(C(C)C)cc1,–,"inconclusive [inhibitor, partial curve]"
Cc1nn(CSc2c(F)c(F)c(F)c(F)c2F)c(C)c1[N+](=O)[O-],–,"inconclusive [inhibitor, single point]"
CCOC(=O)[C@]12CCC=C1N(Cc1ccc(Cl)cc1Cl)C(=O)[C@H](CC(=O)NCCCN1CCCC1=O)C2,–,"inconclusive [inhibitor, single point]"
COc1ccc(N(Cc2ccc(N(C)C)cc2)C(=O)c2ccc(S(C)(=O)=O)cc2)cc1,–,"inconclusive [inhibitor, full curve, poor fit]"
COc1ccc(Nc2ccc(C(N)=O)cc2[N+](=O)[O-])cc1,–,"inconclusive [inhibitor, single point]"
CC(C)(C)n1ncc2c(=O)n(CC(=O)OCc3ccccc3)cnc21,inactive: -0.184%,–
CCC(=O)c1ccc(OCC(=O)OCC(=O)NCC2CCCO2)cc1 (centres undefined),–,"inconclusive [inhibitor, partial curve]"
CCCCc1cc(=O)oc2cc(C)cc(OCC(=O)N[C@@H](CSCc3ccccc3)C(=O)O)c12,inactive: -23%,–
COc1ccc(C=Nc2cccnc2N)cc1,inactive: -24.1%,–
COc1ccc(OC2CCN(S(=O)(=O)c3cccc(F)c3)CC2)cc1,–,"inconclusive [inhibitor, full curve, poor fit]"
O=C(O)C1(c2ccccc2)CCN(S(=O)(=O)c2cccs2)CC1,–,"inconclusive [inhibitor, single point]"
COc1ccc(-c2nc(N)nc(C(F)(F)F)c2-c2ccccc2OC)c(O)c1,–,"inconclusive [inhibitor, partial curve]"
Nc1ccc(C(=O)Nc2ccc(Nc3ccncc3)cc2)cc1,inactive: -2.68%,–
N#CC1=C2N=C(N)c3c(sc4c3CCCCC4)N2C2=C(C(=O)CCC2)C1c1ccccc1 (centres undefined),–,"inconclusive [inhibitor, partial curve]"
Cc1onc(-c2ccccc2)c1C(=O)NC(=S)NNC(=O)c1ccc(O)cc1,–,"inconclusive [inhibitor, partial curve]"
COc1ccc(NC(=O)CN(C)C(=O)CSCC(=O)Nc2ccc(C)cc2)cc1,–,"inconclusive [inhibitor, full curve, poor fit]"
COc1ccc(-n2c(O)c(C=NCc3ccccn3)c3ccccc3c2=O)c(OC)c1,–,"inconclusive [inhibitor, single point]"
Oc1ccc(C2C=C(c3ccc(F)cc3)Nc3ncnn32)cc1 (centres undefined),inactive: -8.13%,–
COc1cc(NC(=O)c2cc3cccc(OC)c3o2)cc(C(=O)Nc2cccc(C(F)(F)F)c2)c1,–,"inconclusive [inhibitor, partial curve]"
COc1ccccc1OC(C)C(=O)N(Cc1ccco1)C1CCS(=O)(=O)C1 (centres undefined),inactive: -7.42%,–
C[C@H](CO)N1C[C@H](C)[C@@H](CN(C)CC2CC2)Oc2c(NC(=O)Cc3ccccc3)cccc2C1=O,–,"inconclusive [inhibitor, full curve, poor fit]"

Structure (SMILES),"activity change, negative = inhibition",Potency
O=C(N/N=C\c1ccccc1)c1ccccc1-n1cccc1,inactive: -5.69%,–
O=C(Nc1ccccc1)c1cccc(S(=O)(=O)Nc2ccccn2)c1,inconclusive: -17.6% [inhibitor],–
Cc1nnc(-c2cnn(C)c2N)n1CCCN1CCOCC1,–,"inconclusive [inhibitor, single point]"
C/C(=N\NS(=O)(=O)c1ccccc1)c1cc(Cl)cc(Cl)c1O,–,active: 17.8 µM
CCc1ccc(NC(=O)C2CCN(S(=O)(=O)c3c(C)noc3/C=C/N(C)C)CC2)cc1,–,"inconclusive [inhibitor, single point]"
O=C(c1cc(-c2ccc(Cl)cc2Cl)on1)N1CCCCCC1,–,"inconclusive [inhibitor, full curve]"
O=C1NC(=O)C2C1C(c1ccc([N+](=O)[O-])cc1)=NN2Cc1ccccc1 (centres undefined),–,"inconclusive [inhibitor, single point]"
C/C(=N\NC(=O)c1cc2ccccc2cc1O)c1cc2ccccc2o1,–,active: 50.1 µM
COc1ccc(-c2cc(C(F)(F)F)c(C#N)c(SCC(=O)Nc3ccc(C)cc3)n2)cc1,–,"inconclusive [inhibitor, single point]"
Cc1c(OC(C)C(=O)NCC(O)c2ccccc2)ccc2c3c(c(=O)oc12)CCC3 (centres undefined),–,"inconclusive [inhibitor, single point]"
CSc1ccc(CN2CCC(CO)(Cc3ccc(Cl)cc3)CC2)cc1,inactive: -0.742%,–
CC1(C(=O)NS(=O)(=O)c2ccc(F)cc2F)CCN1C(=O)c1ccco1 (centres undefined),inactive: -5.89%,–
COc1cc2cc(CCCOC(=O)CCCC(=O)O)oc(=O)c2cc1OC,inactive: -3.74%,–
CC1(C)CC2(CC(c3ccccc3)c3ccc(O)cc3O2)NC(=S)N1 (centres undefined),–,"inconclusive [inhibitor, partial curve]"
O=C(O)c1c2c(nc3ccccc13)/C(=C/c1ccc(OC(F)F)cc1)CCC2,inactive: 5.15%,–
COc1cc(C(=O)OC(C)c2ccc(F)cc2)ccc1OCC(=O)N1CCOCC1 (centres undefined),inactive: -1.26%,–
CC(=O)Nc1cccc2c1C(=O)N(c1cccc(C)c1)C2=O,inactive: -22.7%,–
CC1=Nc2ccccc2N=C(NC(=O)c2ccccc2)C1c1ccccc1 (centres undefined),–,"inconclusive [inhibitor, partial curve]"
COc1ccc(/C=C(/NC(=O)c2ccccc2)C(=O)N/N=C/c2ccncc2)c(OC)c1,–,"inconclusive [inhibitor, partial curve]"
Cc1ccc2c(c1)C(SCC(=O)NCCc1ccccc1)CC1(CCCC1)O2 (centres undefined),–,"inconclusive [inhibitor, partial curve]"
Cc1ccc(S(=O)(=O)/N=C2/NC(=O)/C(=C\c3ccccc3)S2)cc1,–,"inconclusive [inhibitor, partial curve]"
Cc1ccc(Cn2ccc(NC(=O)c3noc4c3CCCC4)n2)cc1,inactive: 15.6%,–
CC(C)(C)n1nc2c(c1NC(=O)Cc1ccc(F)cc1)CSC2,–,"inconclusive [inhibitor, single point]"

# — PubChem BioAssay AID720709 (National Center for Advancing Translational Sciences (NCATS), 2013)
